# This is one part of the list.
# B1: SGC, Q9M345 (protein)
# chain: QNLNFTYNGFHPPLTDISLQGLATVTPNGLLKLTNTSVQKTGHAFCTERIRFKDSQNGNVSSFSTTFVFAIHSQIPTLSGHGIAFVVAPTLGLPFALPSQYIGLFNISNNGNDTNHIFAVEFDTIQSSEFGDPNDNHVGIDLNGLRSANYSTAGYRDDHDKFQNLSLISRKRIQVWIDYDNRSHRIDVTVAPFDSDKPRKPLVSYVRDLSSILLEDMYVGFSSATGSVLSEHFLVGWSFRLNGEAPMLSLSKLPKLPRFEPRRIS
# Experiments:
# Experiment in all cases: glycan array binding signal (z-score within array); higher = stronger binding
# Settings in all cases: glycan notation: IUPAC condensed, linker removed
# [1] = target: Gal(b1-4)GlcNAc(b1-2)Man(a1-6)[GlcNAc(b1-2)Man(a1-3)]Man(b1-4)GlcNAc(b1-4)GlcNAc
# Outline: (§1)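 The binding signal is a Z-score computed within each array and averaged over linkers. Arrays of the same protein sequence at different concentrations or buffers were also averaged together. Data originate from 3228 arrays in the Consortium for Functional Glycomics database, kept only where the protein sequence was available.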
# [2] = target: Gal(b1-4)GlcNAc(b1-2)Man(a1-6)[Man(a1-3)]Man(b1-4)GlcNAc(b1-4)GlcNAc
# Outline: as §1
# [3] = target: Gal(b1-4)GlcNAc(b1-2)[Gal(b1-4)GlcNAc(b1-4)]Man(a1-3)[Gal(b1-4)GlcNAc(b1-2)Man(a1-6)]Man(b1-4)GlcNAc(b1-4)GlcNAc
# Outline: as §1
# [4] = target: Gal(b1-4)GlcNAc(b1-2)[Gal(b1-4)GlcNAc(b1-4)]Man(a1-3)[Gal(b1-4)GlcNAc(b1-2)[Gal(b1-4)GlcNAc(b1-6)]Man(a1-6)]Man(b1-4)GlcNAc(b1-4)GlcNAc
# Outline: as §1
# [5] = target: Gal(b1-4)GlcNAc(b1-2)[Gal(b1-4)GlcNAc(b1-4)]Man(a1-3)[GlcNAc(b1-4)][Gal(b1-4)GlcNAc(b1-2)Man(a1-6)]Man(b1-4)GlcNAc(b1-4)GlcNAc
# Outline: as §1
# [6] = target: Gal(b1-4)GlcNAc(b1-2)[Gal(b1-4)GlcNAc(b1-4)]Man(a1-3)[GlcNAc(b1-4)][Gal(b1-4)GlcNAc(b1-2)[Gal(b1-4)GlcNAc(b1-6)]Man(a1-6)]Man(b1-4)GlcNAc(b1-4)GlcNAc
# Outline: as §1
# [7] = target: Gal(b1-4)GlcNAc(b1-2)[Gal(b1-4)GlcNAc(b1-6)]Man(a1-6)[Gal(b1-4)GlcNAc(b1-2)Man(a1-3)]Man(b1-4)GlcNAc(b1-4)GlcNAc
# Outline: as §1
# [8] = target: Gal(b1-4)GlcNAc(b1-2)[Gal(b1-4)GlcNAc(b1-6)]Man(a1-6)[Gal(b1-4)GlcNAc(b1-2)Man(a1-3)]Man(b1-4)GlcNAc(b1-4)[Fuc(a1-6)]GlcNAc
# Outline: as §1
# [9] = target: Gal(b1-4)GlcNAc(b1-2)[Gal(b1-4)GlcNAc(b1-6)]Man(a1-6)[GlcNAc(b1-4)][Gal(b1-4)GlcNAc(b1-2)Man(a1-3)]Man(b1-4)GlcNAc(b1-4)GlcNAc
# Outline: as §1
# [10] = target: Gal(b1-4)GlcNAc(b1-2)[Gal(b1-4)GlcNAc(b1-6)]Man(a1-6)[GlcNAc(b1-4)][Gal(b1-4)GlcNAc(b1-2)[Gal(b1-4)GlcNAc(b1-4)]Man(a1-3)]Man(b1-4)GlcNAc(b1-4)[Fuc(a1-6)]GlcNAc
# Outline: as §1
# [11] = target: Gal(b1-4)GlcNAc(b1-3)Gal(b1-3)GalNAc
# Outline: as §1
# [12] = target: Gal(b1-4)GlcNAc(b1-3)Gal(b1-3)GlcNAc
# Outline: as §1
# [13] = target: Gal(b1-4)GlcNAc(b1-3)Gal(b1-4)Glc
# Outline: as §1
# [14] = target: Gal(b1-4)GlcNAc(b1-3)Gal(b1-4)GlcNAc
# Outline: as §1
# [15] = target: Gal(b1-4)GlcNAc(b1-3)Gal(b1-4)GlcNAc(b1-2)Man(a1-3)[Gal(b1-4)GlcNAc(b1-3)Gal(b1-4)GlcNAc(b1-2)Man(a1-6)]Man(b1-4)GlcNAc(b1-4)GlcNAc
# Outline: as §1
# [16] = target: Gal(b1-4)GlcNAc(b1-3)Gal(b1-4)GlcNAc(b1-2)Man(a1-3)[Gal(b1-4)GlcNAc(b1-3)Gal(b1-4)GlcNAc(b1-2)Man(a1-6)]Man(b1-4)GlcNAc(b1-4)[Fuc(a1-6)]GlcNAc
# Outline: as §1
# [17] = target: Gal(b1-4)GlcNAc(b1-3)Gal(b1-4)GlcNAc(b1-2)[Gal(b1-4)GlcNAc(b1-3)Gal(b1-4)GlcNAc(b1-6)]Man(a1-6)[Gal(b1-4)GlcNAc(b1-3)Gal(b1-4)GlcNAc(b1-2)Man(a1-3)]Man(b1-4)GlcNAc(b1-4)GlcNAc
# Outline: as §1
# [18] = target: Gal(b1-4)GlcNAc(b1-3)Gal(b1-4)GlcNAc(b1-2)[Gal(b1-4)GlcNAc(b1-3)Gal(b1-4)GlcNAc(b1-6)]Man(a1-6)[Gal(b1-4)GlcNAc(b1-3)Gal(b1-4)GlcNAc(b1-2)Man(a1-3)]Man(b1-4)GlcNAc(b1-4)[Fuc(a1-6)]GlcNAc
# Outline: as §1
# [19] = target: Gal(b1-4)GlcNAc(b1-3)Gal(b1-4)GlcNAc(b1-3)Gal(b1-4)GlcNAc
# Outline: as §1
# [20] = target: Gal(b1-4)GlcNAc(b1-3)Gal(b1-4)GlcNAc(b1-3)Gal(b1-4)GlcNAc(b1-2)Man(a1-3)[Gal(b1-4)GlcNAc(b1-3)Gal(b1-4)GlcNAc(b1-3)Gal(b1-4)GlcNAc(b1-2)Man(a1-6)]Man(b1-4)GlcNAc(b1-4)GlcNAc
# Outline: as §1
# [21] = target: Gal(b1-4)GlcNAc(b1-3)Gal(b1-4)GlcNAc(b1-3)Gal(b1-4)GlcNAc(b1-2)Man(a1-3)[Gal(b1-4)GlcNAc(b1-3)Gal(b1-4)GlcNAc(b1-3)Gal(b1-4)GlcNAc(b1-2)Man(a1-6)]Man(b1-4)GlcNAc(b1-4)[Fuc(a1-6)]GlcNAc
# Outline: as §1
# [22] = target: Gal(b1-4)GlcNAc(b1-3)Gal(b1-4)GlcNAc(b1-3)Gal(b1-4)GlcNAc(b1-2)[Gal(b1-4)GlcNAc(b1-3)Gal(b1-4)GlcNAc(b1-3)Gal(b1-4)GlcNAc(b1-6)]Man(a1-6)[Gal(b1-4)GlcNAc(b1-3)Gal(b1-4)GlcNAc(b1-3)Gal(b1-4)GlcNAc(b1-2)Man(a1-3)]Man(b1-4)GlcNAc(b1-4)[Fuc(a1-6)]GlcNAc
# Outline: as §1
# [23] = target: Gal(b1-4)GlcNAc(b1-3)Gal(b1-4)GlcNAc(b1-3)Gal(b1-4)GlcNAc(b1-3)Gal(b1-4)GlcNAc(b1-2)Man(a1-3)[Gal(b1-4)GlcNAc(b1-3)Gal(b1-4)GlcNAc(b1-3)Gal(b1-4)GlcNAc(b1-3)Gal(b1-4)GlcNAc(b1-2)Man(a1-6)]Man(b1-4)GlcNAc(b1-4)GlcNAc
# Outline: as §1
# [24] = target: Gal(b1-4)GlcNAc(b1-3)Gal(b1-4)GlcNAc(b1-3)Gal(b1-4)GlcNAc(b1-3)Gal(b1-4)GlcNAc(b1-2)Man(a1-3)[Gal(b1-4)GlcNAc(b1-3)Gal(b1-4)GlcNAc(b1-3)Gal(b1-4)GlcNAc(b1-3)Gal(b1-4)GlcNAc(b1-2)Man(a1-6)]Man(b1-4)GlcNAc(b1-4)[Fuc(a1-6)]GlcNAc
# Outline: as §1
# [25] = target: Gal(b1-4)GlcNAc(b1-3)Gal(b1-4)GlcNAc(b1-3)Gal(b1-4)GlcNAc(b1-3)Gal(b1-4)GlcNAc(b1-2)[Gal(b1-4)GlcNAc(b1-3)Gal(b1-4)GlcNAc(b1-3)Gal(b1-4)GlcNAc(b1-3)Gal(b1-4)GlcNAc(b1-6)]Man(a1-6)[Gal(b1-4)GlcNAc(b1-3)Gal(b1-4)GlcNAc(b1-3)Gal(b1-4)GlcNAc(b1-3)Gal(b1-4)GlcNAc(b1-2)Man(a1-3)]Man(b1-4)GlcNAc(b1-4)[Fuc(a1-6)]GlcNAc
# Outline: as §1
# [26] = target: Gal(b1-4)GlcNAc(b1-3)Gal(b1-4)GlcNAc(b1-3)Gal(b1-4)GlcNAc(b1-3)Gal(b1-4)GlcNAc(b1-3)Gal(b1-4)GlcNAc(b1-2)Man(a1-3)[Gal(b1-4)GlcNAc(b1-3)Gal(b1-4)GlcNAc(b1-3)Gal(b1-4)GlcNAc(b1-3)Gal(b1-4)GlcNAc(b1-3)Gal(b1-4)GlcNAc(b1-2)Man(a1-6)]Man(b1-4)GlcNAc(b1-4)GlcNAc
# Outline: as §1
# [27] = target: Gal(b1-4)GlcNAc(b1-3)Gal(b1-4)GlcNAc(b1-3)Gal(b1-4)GlcNAc(b1-3)Gal(b1-4)GlcNAc(b1-3)Gal(b1-4)GlcNAc(b1-2)Man(a1-3)[Gal(b1-4)GlcNAc(b1-3)Gal(b1-4)GlcNAc(b1-3)Gal(b1-4)GlcNAc(b1-3)Gal(b1-4)GlcNAc(b1-3)Gal(b1-4)GlcNAc(b1-2)Man(a1-6)]Man(b1-4)GlcNAc(b1-4)[Fuc(a1-6)]GlcNAc
# Outline: as §1
# [28] = target: Gal(b1-4)GlcNAc(b1-3)Gal(b1-4)GlcNAc(b1-3)Gal(b1-4)GlcNAc(b1-3)Gal(b1-4)GlcNAc(b1-3)Gal(b1-4)GlcNAc(b1-2)[Gal(b1-4)GlcNAc(b1-3)Gal(b1-4)GlcNAc(b1-3)Gal(b1-4)GlcNAc(b1-3)Gal(b1-4)GlcNAc(b1-3)Gal(b1-4)GlcNAc(b1-6)]Man(a1-6)[Gal(b1-4)GlcNAc(b1-3)Gal(b1-4)GlcNAc(b1-3)Gal(b1-4)GlcNAc(b1-3)Gal(b1-4)GlcNAc(b1-3)Gal(b1-4)GlcNAc(b1-2)Man(a1-3)]Man(b1-4)GlcNAc(b1-4)[Fuc(a1-6)]GlcNAc
# Outline: as §1
# [29] = target: Gal(b1-4)GlcNAc(b1-3)Gal(b1-4)GlcNAc(b1-3)Gal(b1-4)GlcNAc(b1-3)Gal(b1-4)GlcNAc(b1-3)Gal(b1-4)GlcNAc(b1-3)Gal(b1-4)GlcNAc(b1-2)Man(a1-3)[Gal(b1-4)GlcNAc(b1-3)Gal(b1-4)GlcNAc(b1-3)Gal(b1-4)GlcNAc(b1-3)Gal(b1-4)GlcNAc(b1-3)Gal(b1-4)GlcNAc(b1-3)Gal(b1-4)GlcNAc(b1-2)Man(a1-6)]Man(b1-4)GlcNAc(b1-4)GlcNAc
# Outline: as §1
# [30] = target: Gal(b1-4)GlcNAc(b1-3)Gal(b1-4)GlcNAc(b1-3)GalNAc
# Outline: as §1
# [31] = target: Gal(b1-4)GlcNAc(b1-3)Gal(b1-4)GlcNAc(b1-3)[Gal(b1-4)GlcNAc(b1-3)Gal(b1-4)GlcNAc(b1-6)]GalNAc
# Outline: as §1
# [32] = target: Gal(b1-4)GlcNAc(b1-3)Gal(b1-4)GlcNAc(b1-6)[Gal(b1-3)]GalNAc
# Outline: as §1
# [33] = target: Gal(b1-4)GlcNAc(b1-3)Gal(b1-4)[Fuc(a1-3)]GlcNAc(b1-3)Gal(b1-4)[Fuc(a1-3)]GlcNAc
# Outline: as §1
# [34] = target: Gal(b1-4)GlcNAc(b1-3)GalNAc
# Outline: as §1
# [35] = target: Gal(b1-4)GlcNAc(b1-3)[Fuc(a1-3)GlcNAc(b1-6)]Gal(b1-4)Glc
# Outline: as §1
# [36] = target: Gal(b1-4)GlcNAc(b1-3)[Gal(b1-4)GlcNAc(b1-6)]Gal(b1-4)GlcNAc
# Outline: as §1
# [37] = target: Gal(b1-4)GlcNAc(b1-3)[GlcNAc(b1-6)]Gal(b1-4)GlcNAc
# Outline: as §1
binder,measurement,setting,value
B1,glycan array binding signal (z-score),[1],0.124
same,glycan array binding signal (z-score),[2],1.5
same,glycan array binding signal (z-score),[3],-0.278
same,glycan array binding signal (z-score),[4],-0.335
same,glycan array binding signal (z-score),[5],-0.227
same,glycan array binding signal (z-score),[6],2.19
same,glycan array binding signal (z-score),[7],0.471
same,glycan array binding signal (z-score),[8],-0.192
same,glycan array binding signal (z-score),[9],-0.282
same,glycan array binding signal (z-score),[10],-0.386
same,glycan array binding signal (z-score),[11],-0.3
same,glycan array binding signal (z-score),[12],-0.295
same,glycan array binding signal (z-score),[13],-0.237
same,glycan array binding signal (z-score),[14],-0.296
same,glycan array binding signal (z-score),[15],1.68
same,glycan array binding signal (z-score),[16],4.81
same,glycan array binding signal (z-score),[17],2.24
same,glycan array binding signal (z-score),[18],0.334
same,glycan array binding signal (z-score),[19],0.343
same,glycan array binding signal (z-score),[20],3.58
same,glycan array binding signal (z-score),[21],2.91
same,glycan array binding signal (z-score),[22],1.28
same,glycan array binding signal (z-score),[23],4.57
same,glycan array binding signal (z-score),[24],5.27
same,glycan array binding signal (z-score),[25],8.45
same,glycan array binding signal (z-score),[26],1.78
same,glycan array binding signal (z-score),[27],1.76
same,glycan array binding signal (z-score),[28],5.39
same,glycan array binding signal (z-score),[29],0.604
same,glycan array binding signal (z-score),[30],-0.21
same,glycan array binding signal (z-score),[31],1.95
same,glycan array binding signal (z-score),[32],2.26
same,glycan array binding signal (z-score),[33],0.252
same,glycan array binding signal (z-score),[34],-0.094
same,glycan array binding signal (z-score),[35],-0.36
same,glycan array binding signal (z-score),[36],-0.25
same,glycan array binding signal (z-score),[37],-0.423

# From the supplement of paper PMC8728848
